# Results reported in PubChem BioAssay (NCATS).
# Where “and” joins values, the source holds several entries; their conditions need not be identical. Equal entries are not always repeated. Some of the results follow. These are further read-outs of the screen, such as a control signal, another cell line or another target. No call is given for them. Most of these compounds were active or inconclusive in the main read-out, so they are no random draw. Potencies come from curve fits of mixed quality, noted in brackets.
# Test: qHTS Assay for Lipid Storage Modulators (AID 1519)
# Settings: Drosophila S3 cells, BODIPY lipid droplet/cell ratio, laser cytometry, cells loaded with oleic acid
# In short: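 Cells seeded at 5,000 per well were treated with compounds over a concentration series and loaded with oleic acid (400 uM, as added). Lipid droplet fluorescence (488 nm excitation, 500-530 nm channel) was read by laser-scanning cytometry and normalized to 20 uM Triacsin C.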
# [1] = measured here: cell count channel max response
# [2] = measured here: lipid (BODIPY) channel AC50
# [3] = measured here: lipid channel max response
# Tags tell the direction and shape of the fitted curve.
Structure (SMILES),max response [1],AC50 [2],max response [3],AC50 (measured here: cell number channel AC50)
COCCn1c(=O)c(-c2cc(F)cc(F)c2)nc2cnc(OC)nc21,29.7%,"0.562 µM [rising, full curve]",37.8%,
CC1CCC2[C@](C)(CO)C(O)CC[C@]2(C)C12CCC(CO)(CCO)O2 (stereo not given in full),-34.5%,,-23.2%,"1.12 µM [falling, partial curve, poor fit]"
NCCCCN=C(N)N,80.3% and 45.1%,"39.8 µM [rising, single point]",107% and 46.3%,
COc1ccc(-n2c(=O)c(-c3cc(F)cc(F)c3)nc3cnc(N4CCOCC4)nc32)cc1,28.6%,"3.55 µM [rising, full curve, poor fit]",35.2%,
CN1CCN(c2ncc3nc(CCc4ccccc4)c(=O)n(Cc4cccs4)c3n2)CC1,10.9%,"0.0251 µM [rising, full curve, poor fit]",15.2%,
